# From PubChem BioAssay AID485294 (National Center for Advancing Translational Sciences (NCATS), 2010)
# Out of some 370,000 compounds screened, about 150 (0.041%) were called active. The inconclusive results got no clear call from the source; some entries with a clear call stand among them for comparison. Calls come from the whole dose curve; as a rule, active = well fitted inhibition curve with a large enough effect; inconclusive = small, poorly fitted or top-dose-only effect; inactive = flat fitted curve, though single readings scatter. No potency is given beside an inconclusive call; the fits are too rough.
# Biological target: Beta-lactamase (Escherichia coli (strain K12)) (UniProt P00811)
# Experiment: qHTS Inhibitors of AmpC Beta-Lactamase (assay with detergent); note: nearly all actives have a fitted effect of over 25% in size
# Conditions: AmpC hydrolysis of nitrocefin, absorbance 480 nm, 0.01% Triton; series mostly up to 114 µM
# Outline: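 20 mM phosphate pH 7.0 + 0.01% (detergent screen) or 0.0001% Triton X-100; 5.3 nM AmpC reagent; cpd preinc 15 min RT; nitrocefin (800 uM stock) to start; A480 q20 s × 4 min; Activity was normalised to no-enzyme and no-compound control wells.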
# Potency is the fitted concentration of half-maximal effect; tags give direction and shape of the fitted curve.
# UniProt P00811, sequence (P00811 whole entry, looked up): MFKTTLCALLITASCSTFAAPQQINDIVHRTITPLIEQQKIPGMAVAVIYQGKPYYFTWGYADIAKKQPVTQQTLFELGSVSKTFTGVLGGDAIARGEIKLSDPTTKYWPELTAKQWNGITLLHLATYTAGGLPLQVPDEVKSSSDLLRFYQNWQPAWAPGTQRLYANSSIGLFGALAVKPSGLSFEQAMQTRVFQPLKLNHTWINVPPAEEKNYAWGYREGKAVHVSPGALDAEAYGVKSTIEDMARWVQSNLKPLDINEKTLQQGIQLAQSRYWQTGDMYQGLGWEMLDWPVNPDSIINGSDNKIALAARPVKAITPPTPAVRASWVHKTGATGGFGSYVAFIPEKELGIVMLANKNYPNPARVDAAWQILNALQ
row,SMILES,Potency
1,CCn1c(CN2CCN(C(=O)c3ccco3)CC2)nc2c1c(=O)n(C)c(=O)n2C,"inconclusive [inhibitor, full curve, poor fit]"
2,COc1cc(CNc2ccc(N3CCCC3)cc2)ccc1OCc1ccccc1F,"inconclusive [inhibitor, full curve, poor fit]"
3,O=C(COc1ccccc1)NNC(=O)c1cc2ccccc2oc1=O,"inconclusive [inhibitor, single point]"
4,Cn1c(=O)c2c(nc(SCc3cc4c(cc3Cl)OCO4)n2C)n(C)c1=O,"inconclusive [inhibitor, full curve, poor fit]"
5,Cc1noc(C)c1C(=O)OCC(=O)NC1CC1,"inconclusive [inhibitor, single point]"
6,O=C(O)CCCN1C(=O)C(=O)/C(=C(/O)c2ccc(Cl)cc2)C1c1ccccc1 (centres undefined),inactive
7,Cc1cc(F)ccc1NC(=O)CCS(=O)(=O)c1ccc2c(c1)CC(C)N2C(=O)C1CC1 (centres undefined),inactive
8,O=c1oc(/C=C/c2ccco2)nc2sc3c(c12)CCC3,"inconclusive [inhibitor, full curve]"
9,CC1CCc2nn(CC(=O)NCc3ccc4c(c3)OCO4)cc2C1 (centres undefined),"inconclusive [inhibitor, full curve, poor fit]"
10,CCN(CC(=O)Nc1ccc2c(c1)OCCO2)C(=O)/C=C/c1ccc([N+](=O)[O-])cc1,inactive
11,CS(=O)(=O)N(Cc1ccccc1Cl)c1ccc(C(=O)N2CCCC2)cc1,"inconclusive [inhibitor, full curve, poor fit]"
12,CCCCC[C@]12Cc3ccccc3C(O1)C1=C(CC(C)(C)CC1=O)O2,"inconclusive [inhibitor, full curve]"
13,O=C(NNC(=O)c1ccc2nc[nH]c2c1)c1ccccc1,inactive
14,O=C(O)C1(S(=O)(=O)CCC(F)=C(F)F)CC1,inactive
15,COCCCNCCOCCOc1ccccc1-c1ccccc1,inactive
16,CCN1CCCC1CN(Cc1cc2ccc(C)cc2[nH]c1=O)C(=S)Nc1ccc(OC)cc1 (centres undefined),"inconclusive [inhibitor, full curve, poor fit]"
17,CCOC(=O)CN1C(=O)CN(c2ccc(C)cc2)C1=O,inactive
18,COc1ccc(OCCSc2nnnn2C2CCCCC2)cc1,"inconclusive [inhibitor, full curve, poor fit]"
19,CCOc1ccc(N2C(=O)CCC2=O)cc1,"inconclusive [inhibitor, partial curve, poor fit]"
20,O=C(N/N=C/c1ccc([N+](=O)[O-])cc1)c1cccs1,"inconclusive [inhibitor, partial curve]"
21,COc1ccccc1N(Cc1ccccc1)S(=O)(=O)c1cccc(C(=O)NC2CC(C)(C)NC(C)(C)C2)c1,"inconclusive [inhibitor, partial curve, poor fit]"
22,Cc1cc(N/C=C/C(=O)c2cccc3ccccc23)no1,"inconclusive [inhibitor, full curve, poor fit]"

row,SMILES,Potency
1,Cc1ccc(-c2nc3ccccc3nc2Cl)cc1,"inconclusive [inhibitor, full curve]"
2,COc1ccc(-c2noc(C3CCCN(C(=O)c4ccccc4OC)C3)n2)cc1 (centres undefined),"inconclusive [inhibitor, partial curve, poor fit]"
3,CN1CC=C(/C=C/c2ccc(-c3ccccc3)cc2)CC1,inactive
4,O=C(COCc1cc(-c2ccc3c(c2)OCO3)on1)N1CCN(c2cccc(Cl)c2)CC1,"inconclusive [inhibitor, full curve, poor fit]"
5,Cc1ccc(N(C)C(=O)N2CCN(S(=O)(=O)c3ccc(C)cc3)CC2)cc1,"inconclusive [inhibitor, full curve, poor fit]"
6,C/C(=N\Nc1nccnc1Cl)c1ccc(O)c(C)c1,"inconclusive [inhibitor, full curve, poor fit]"
7,COc1ccccc1N1CCN(C2CCCN(C(=O)CCn3cncn3)C2)CC1 (centres undefined),"inconclusive [inhibitor, full curve, poor fit]"
8,CCN(CC)S(=O)(=O)c1cccc(C(=O)Nc2ccc(C#N)cc2)c1,"inconclusive [inhibitor, full curve, poor fit]"
9,COc1ccccc1OCC(O)Cn1c(=N)n(CCN2CCCCC2)c2ccccc21 (centres undefined),"inconclusive [inhibitor, partial curve, poor fit]"
10,Oc1ccccc1/C=N/Nc1cc(N2CCCC2)nc(N2CCCC2)n1,inactive
11,CC1CN(C(=O)COC(=O)c2ccc(O)cc2)CC(C)O1 (centres undefined),"inconclusive [inhibitor, full curve, poor fit]"
12,COc1ccc2c(c1)CCc1c(C(=O)Nc3c(C)nn(Cc4ccccc4C)c3C)noc1-2,inactive
13,CC(=O)NCCc1nc2ccccc2n1Cc1ccccc1,"inconclusive [inhibitor, full curve]"
14,Cc1ccccc1NC(=O)c1nc2nccc(C)n2n1,"inconclusive [inhibitor, full curve, poor fit]"
15,Cc1ccc(-n2c(=O)[nH]c3c(C(N)=O)nc(CC(C)C)nc32)cc1,"inconclusive [inhibitor, single point]"
16,CC(C)OCCCNC(=O)c1cc(Sc2ccc(F)cc2)nc2ccccc12,"inconclusive [inhibitor, full curve, poor fit]"
17,CCC(=O)Nc1cccc(C2=NOC3(C2)C[C@H](C(N)=O)N(C(=O)c2ccc(Cl)cc2)C3)c1 (some centres undefined),inactive
18,O=C(CSc1cccc[n+]1[O-])Nc1ccccc1Oc1ccccc1,inactive
19,Cc1cc(C)c2c(CC(=O)N3CCCC3)coc2c1,"inconclusive [inhibitor, partial curve]"
20,N#C[C@@H]1[C@@H]2C(=O)N(c3ccc4c(c3)OCCO4)C(=O)[C@@H]2C2c3ccccc3C=CN21 (some centres undefined),"inconclusive [inhibitor, full curve, poor fit]"
21,O=C(NC(Cc1c[nH]c2ccccc12)C(=O)Nc1ccc(F)cc1)c1cccs1 (centres undefined),"inconclusive [inhibitor, single point]"
22,N=c1n(CC(=O)c2ccc([N+](=O)[O-])cc2)c2ccccc2n1Cc1ccccc1,"inconclusive [inhibitor, full curve, poor fit]"

row,SMILES,Potency
1,Cc1ccc(CNC(=O)Nc2ccc(F)cc2F)n1C,"inconclusive [inhibitor, single point]"
2,Cc1cccc(NC(=O)c2ccc3snnc3c2)c1C,inactive
3,Cc1ccc(-c2nc(C#N)c(NCCc3ccccn3)o2)cc1,"inconclusive [inhibitor, full curve, poor fit]"
4,COc1ccc(C2C(C#N)=C(N)N(c3cccnc3)C3=C2C(=O)CCC3)cc1Cn1cc([N+](=O)[O-])cn1 (centres undefined),"inconclusive [inhibitor, partial curve]"
5,O=C(CN1C(=O)c2ccccc2S1(=O)=O)N1CCN(Cc2ccc3c(c2)OCO3)CC1,"inconclusive [inhibitor, full curve, poor fit]"
6,Cc1ccc2oc(-c3ccc(C)c(NC(=O)c4ccc(N5CCC(C)CC5)c([N+](=O)[O-])c4)c3)nc2c1,inactive
7,Cc1nn(-c2ccccc2)c2c1C(c1cccs1)C(C#N)=C(N)O2 (centres undefined),"inconclusive [inhibitor, full curve, poor fit]"
8,O=[N+]([O-])c1ccc(N2CCCCC2)cc1N1CCOCC1,"inconclusive [inhibitor, partial curve, poor fit]"
9,O=C(NC(=S)NC1CCSC1=O)c1ccccc1 (centres undefined),"inconclusive [inhibitor, partial curve, poor fit]"
10,CCCCCCCCC(=O)NC(NC(=S)N1CCOCC1)C(Cl)(Cl)Cl (centres undefined),"inconclusive [inhibitor, partial curve]"
11,CC(C)[C@H](NC(=O)N1c2ccccc2NC(=O)[C@@H]1C(C)C)C(=O)N[C@H](Cc1ccccc1)C(=O)O,"inconclusive [inhibitor, single point]"
12,Cc1cccc(NC(=O)COc2ccccc2)c1,"inconclusive [inhibitor, full curve]"
13,CCOC(=O)c1[nH]c2ccc(OC)cc2c1NC(=O)C(C)N1CCSCC1 (centres undefined),"inconclusive [inhibitor, full curve, poor fit]"
14,COc1ccc(C2=NCCc3cc(OC)c(OC)cc32)cc1OC,"inconclusive [inhibitor, full curve, poor fit]"
15,CCc1nnc(NC(=O)c2cccc(S(=O)(=O)N3CC(c4ccccc4)CC3=O)c2)s1 (centres undefined),"inconclusive [inhibitor, partial curve]"
16,O=C(CCN1C(=O)c2ccccc2C1=O)N1CCN(Cc2ccc(Cl)cc2Cl)CC1,"inconclusive [inhibitor, full curve]"
17,CC1(C)CC(=O)C(C(c2cccnc2)C2C(=O)CC(C)(C)CC2=O)C(=O)C1,"inconclusive [inhibitor, full curve, poor fit]"
18,CCc1cc(C(c2cccc(OC)c2)N2CCOCC2)c(NC(=O)c2ccccc2)s1 (centres undefined),inactive
19,COC(=O)C(CCSC)NC(=O)c1cc2c(n(-c3ccc(Cl)cc3)c1=O)CCCC2=O (centres undefined),inactive
20,COc1ccccc1N1CCN(C2CCCN(C(=O)c3ccnc4ccc(C)cc34)C2)CC1 (centres undefined),"inconclusive [inhibitor, full curve]"
